Assay results taken from PubChem BioAssay (Tox21).
This list was built around the results that the source calls inconclusive (neither active nor inactive); the mix of calls is not that of the screen. Where a call stands in place of a potency, no number is given. Potencies of inconclusive entries are doubtful fits and often do not repeat. Active and inactive are the calls of the source. The call rests on the fitted dose curve; in most records, active means well fitted cell-killing curve with a large enough effect in the repeat runs (not every such curve was filed as active); inconclusive means weak or mixed curves, or effect the other way; inactive means no such curve, though single readings can be large or run the other way.

assay: qHTS assay to identify small molecule antagonists of the farnesoid-X-receptor (FXR) signaling pathway - cell viability counter screen (AID 743221); details: FXR-bla HEK293T viability, CellTiter-Glo luminescence, 16 h; activity change, negative = cytotoxicity: at 62.6 µM (top of the series) unless noted; further: nearly all actives have a fitted effect of over 50% in size
Description: National Center for Advancing Translational Sciences [NCATS]
NIH Chemical Genomics Center [NCGC]
U.S. Environmental Protection Agency [EPA]
National Institutes of Environmental Health Sciences [NIEHS]
National Toxicology Program [NTP]
U.S. Food and Drug Administration [FDA]
The farnesoid-X-receptor (FXR), a nuclear hormone receptor, is highly expressed in liver, intestine, kidney and adrenal cortex. Natural ligands of FXR are the bile acids (Cholic acid, Chenodeoxy cholic acid etc). FXR is an important regulator of diverse metabolic pathways, including the bile acid homeostasis, lipid and glucose metabolisms. FXR regulates the expression of target genes by binding either as a monomer or as a heterodimer with the retinoid X receptor (RXR). Numerous studies have reported that FXR exerts protective function during cholestasis, diabetes, liver regeneration, and cancer. To identify compounds that inhibit FXR signaling, GeneBLAzer FXR-UAS-bla HEK 293T cell line (Invitrogen, Carlsbad, CA) containing a beta-lactamase reporter gene under the control of a UAS response element was used to screen the Tox21 10K compound library. The cytotoxicity of the Tox21 compound library against the FXR-bla cell line was tested in parallel by measuring the cell viability using CellTiter-Glo assay in the same wells.
Tox21 Assay Protocol Summary:
FXR-bla cells were dispensed at 5000 cells/5uL/well in 1536-well black wall/clear bottom plates using a Multidrop Combi (Thermo Fisher Scientific, Waltham, MA) dispenser. After the assay plates were incubated at 37 C and 5% CO2 for 5 h, 23 nL of compounds dissolved in DMSO, positive controls or DMSO only was transferred to the assay plate by a Pintool station (Kalypsys, San Diego, CA), followed by addition of 1 uL Chenodeoxycholic acid (50 uM, final concentration in the wells). The assay plates were incubated at 37C for 16 h. After 1 uL of LiveBLAzerTM B/G FRET substrate was added using a Bioraptr Flying Reagent Dispenser (FRD) workstation (Beckman Coulter, Indianapolis, IN), the plates were incubated at room temperature for 2 h, and fluorescence intensity was measured by an Envision plate reader (PerkinElmer, Shelton, CT). For cell viability readout that measures cytotoxicity, 4uL/well of CellTiter-Glo reagent was added into the assay plates using a Bioraptr FRD. After 30 min incubation at room temperature, the luminescence intensity in the plates was measured using a ViewLux plate reader (PerkinElmer).
Potency means the concentration at half of the fitted maximal effect; tags describe the fitted curve by direction and shape.

| SMILES | Potency | activity change, negative = cytotoxicity |
| --- | --- | --- |
| CCCCN1C=CN(C)C1 | inconclusive: 6.98 µM [falling, partial curve, poor fit] |  |
| CC12CCC(C1)C(C)(C)C2O (stereo not given) | inconclusive: 4.9 µM [rising, full curve] |  |
| C[C@]12CCC(=O)C=C1CC[C@@H]1[C@@H]2[C@@H](O)C[C@@]2(C)[C@H]1CC[C@]2(O)C(=O)CO | inactive |  |
| FC(F)(F)c1ccccc1-n1ccnc1 | inactive |  |
| Oc1cc(O)c2c(c1)O[C@H](c1ccc(O)c(O)c1)[C@H](O)C2 | inconclusive: 10.6 µM [rising, partial curve] |  |
| CCCCCCCCCCCCC1CO1 (stereo not given) | inactive |  |
| C=C1C[C@]23C[C@@]1(O)CC[C@H]2[C@@]12C=C[C@H](O)[C@@](C)(C(=O)O1)[C@H]2[C@@H]3C(=O)O | inactive |  |
| CC1=CC[C@H](CC=O)C1(C)C | inconclusive: 54.9 µM [falling, partial curve, poor fit] |  |
| NCCc1ccn[nH]1 | inactive |  |
| CCOC(=O)C(=O)OCC | inactive |  |
| O=C(O)CCSSCCC(=O)O | inactive |  |
| CCCn1cc[n+](C)c1C | inactive |  |
| O=S(=O)(O)c1cccc2c(S(=O)(=O)O)cccc12 | inactive |  |
| COCCOCCOC | inactive |  |
| COC(=O)c1ccc(OC)cc1 | inconclusive: 3.89 µM [falling, full curve, poor fit] |  |
| CC(C)Cn1cnc2c1c(=O)n(C)c(=O)n2C | inconclusive: 33.5 µM [rising, partial curve, poor fit] |  |
| NC(=O)Nc1ccc(Cl)cc1 | inactive |  |
| CCCCCCCCOC(C)=O | inactive |  |
| CCN(CC)C(=O)c1cccc(C)c1 | inactive |  |
| NC(=O)c1ncn([C@@H]2O[C@H](CO)[C@@H](O)[C@H]2O)c1O | inactive |  |

| SMILES | Potency | activity change, negative = cytotoxicity |
| --- | --- | --- |
| CCCCCCCCCCl | inactive |  |
| CCc1ccccc1CC | inconclusive: 0.252 µM [falling, full curve, poor fit] |  |
| CNc1ncnc2nc[nH]c12 |  | inconclusive: -31% [at 81.1 µM] |
| CC1=CC(C)C(C=O)C(C)C1 (stereo not given) | inconclusive: 6.16 µM [falling, full curve, poor fit] |  |
| COc1cc(NS(=O)(=O)c2ccc(N)cc2)ncn1 | inactive |  |
| CC(C)CCOC(=O)CC(C)C | inactive |  |
| O=C(O)c1ccncc1 | inactive |  |
| CC(=O)CC(C)(C)O | inconclusive: 1.95 µM [falling, full curve, poor fit] | inconclusive: -37.2% [at 81.1 µM] |
| O=C(c1ccccc1O)c1ccccc1O | inactive |  |
| FC1(F)C(F)(F)C(F)(F)C2(F)C(F)(C1(F)F)C(F)(F)C(F)(F)C1(F)C(F)(F)C(F)(F)C(F)(F)C(F)(F)C12F (stereo not given) | inactive |  |
| CC(C)C(=O)Nc1cccc(C(F)(F)F)c1 | inactive |  |
| C=COC(=O)C(C)(CC)CCC(C)C (stereo not given) | inconclusive: 24.5 µM [falling, partial curve, poor fit] |  |
| c1ccc(CCCc2ccccn2)cc1 | inactive |  |
| OC[C@H]1O[C@@H]2O[C@H]3[C@H](O)[C@@H](O)[C@@H](O[C@H]4[C@H](O)[C@@H](O)[C@@H](O[C@H]5[C@H](O)[C@@H](O)[C@@H](O[C@H]6[C@H](O)[C@@H](O)[C@@H](O[C@H]7[C@H](O)[C@@H](O)[C@@H](O[C@H]8[C@H](O)[C@@H](O)[C@@H](O[C@H]9[C@H](O)[C@@H](O)[C@@H](O[C@H]1[C@H](O)[C@H]2O)O[C@@H]9CO)O[C@@H]8CO)O[C@@H]7CO)O[C@@H]6CO)O[C@@H]5CO)O[C@@H]4CO)O[C@@H]3CO | inactive |  |
| O=S(=O)(O)c1ccc2cc(O)c(S(=O)(=O)O)cc2c1 | inactive |  |
| Cc1ccc(O)c([N+](=O)[O-])c1 | inactive |  |
| Cc1cc(NS(=O)(=O)c2ccc(N)cc2)nc(C)n1 | inactive |  |
| CO[Si](CCCNCCC[Si](OC)(OC)OC)(OC)OC | inactive |  |
| O=C(O)c1cccc(C(=O)O)n1 | inconclusive: 61.6 µM [rising, partial curve, poor fit] |  |
